# “And” between values parts separate entries of the source, which are not always exact repeats. Identical values can stand only once. Out of some 340,000 compounds screened, about 6,900 (2%) were called active. Cut-off read from the data, not from the text of the source: active = inhibition above about 30%; inactive = below that, where a call was filed. The entries are a selection whose mix differs from that of the whole data set. Entries without a call were filed so in the source.
# Biological target: D(2) dopamine receptor (Homo sapiens) (UniProt P14416)
# Sequence of UniProt P14416 (P14416 whole entry, looked up): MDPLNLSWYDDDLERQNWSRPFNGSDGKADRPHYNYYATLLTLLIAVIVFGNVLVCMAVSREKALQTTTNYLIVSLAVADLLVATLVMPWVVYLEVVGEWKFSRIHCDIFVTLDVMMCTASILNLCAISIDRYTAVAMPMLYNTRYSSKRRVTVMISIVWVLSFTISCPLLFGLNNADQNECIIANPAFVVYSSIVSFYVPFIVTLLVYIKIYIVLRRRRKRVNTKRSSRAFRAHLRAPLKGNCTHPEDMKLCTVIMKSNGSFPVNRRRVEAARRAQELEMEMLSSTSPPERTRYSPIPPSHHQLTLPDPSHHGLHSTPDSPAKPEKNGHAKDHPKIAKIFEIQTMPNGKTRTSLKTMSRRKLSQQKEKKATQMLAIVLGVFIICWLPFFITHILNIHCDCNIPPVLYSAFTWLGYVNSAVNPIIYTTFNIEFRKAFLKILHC
# Experiment: HTS Assay for Allosteric Antagonists of the Human D2 Dopamine Receptor: Primary Screen for Antagonists; note: 0% is about no effect
# Settings: HEK293 TREx D2 cells, calcium flux, dopamine EC80; at 10 µM; stronger effect = higher value
# Summary of the method: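 Overnight-induced (tetracycline, 30 C) HEK293 T-REx cells carrying force-coupled D2 receive a no-wash calcium dye, then compound, then EC80 dopamine at 180 s; signals are read kinetically throughout.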
row,SMILES,inhibition
1,Cc1ccc(CNC(=O)CCc2c(C)nc3c4c(C)cc(C)nc4nn3c2C)cc1,-5.76%
2,COc1cccc(NC(=O)N(Cc2cn(C)c3ccccc23)C2CCCCCC2)c1,-1.86%
3,CCN1CCN(c2cc(C)c3cc(NC(=O)/C=C/c4ccc(C)cc4)ccc3n2)CC1,3.15%
4,COc1ccc(C2CC(=O)Oc3ccc(C(C)(C)C)cc32)cc1 (stereo unspecified),active: 40.2%
5,Cc1cccc(C(=O)Nc2ccc(N3CCC(N4CCCCC4)CC3)c(C(=O)O)c2)c1,0.414%
6,Cc1cccc(CN2CCN(CC(=O)Nc3c(C)cccc3C)S2(=O)=O)c1,3.59%
7,COc1cc(CNc2ccc3[nH]c(=O)[nH]c3c2)cc(Br)c1OCc1ccccc1F,-3.42%
8,Cc1ccc(C)n1-c1nnc(N2CCCC(C(=O)NCc3cccc(Br)c3)C2)s1 (stereo unspecified),-7.64%
9,COCCNC(=O)CSc1nc(-c2ccccc2)[nH]c1-c1ccc(C)cc1,12.1%
10,CCCOc1ccc(CNC(=O)C2CCN(C(=O)c3sccc3-n3cccc3)CC2)cc1,-8.45%
11,CCCNC(=O)C1CCN(c2nc3ccc(C)cc3[nH]2)CC1,-5.16%
12,Cc1ccc(CNC(=O)CCCN2C(=O)CCn3nc(-c4cccn4C)cc32)cc1,23.8%
13,COc1ccc(-c2nc3ccccc3n3c(-c4ccc(OC)cc4)c4c(=O)n(C)c(=O)n(C)c4c23)cc1,13.9%
14,CCOC(=O)c1ccc2c(c1)N(Cc1ccc(F)cc1Cl)C(=O)c1ccccc1S2,-13.1%
15,Cc1cnc(=O)[nH]c1SCC(=O)Nc1cc(C(F)(F)F)ccc1Cl,-22.8%
16,Cc1c(Cl)cccc1-n1nc(C)c2c(C)cc(=O)n(CC(=O)N3CCCc4ccccc43)c21,-18.4%
17,O=C(CN1CCOCC1)Nc1scc2c1c(=O)oc1ccccc12,active: 35.7%
18,CCN(CC)CCOC(=O)c1ccc(NC(=O)c2cc3cc(OC)ccc3oc2=O)cc1,5.42%
19,COCCNC(=O)CN1C(=O)COc2ccc(S(=O)(=O)N3CCCC3)cc21,26.4%
20,CCc1ccc(NC(=O)Cn2c(=O)n(CCCC(=O)NCCc3ccc(OC)c(OC)c3)c(=O)c3ccccc32)cc1,-5.1%
21,Cc1nnc(SCC(=O)Nc2ccc(N(C)C)cc2)[nH]c1=O,3.54%
22,CCOC(=O)N1CCc2c(sc3c2C(=O)NC(c2ccc(C(=O)OC)cc2)N3)C1 (stereo unspecified),3.25%
23,Cc1ccccc1NC(=O)CCn1nc(-c2ccccc2)c2ccccc2c1=O,-10.1%
24,CCOc1ccc(Sc2cc(C(=O)NCc3ccccc3Cl)c3ccccc3n2)cc1,-0.835%

row,SMILES,inhibition
1,Cc1ccc(CNS(=O)(=O)c2ccc3c(c2)CC(C)N3C(=O)C2CCC2)cc1 (stereo unspecified),7.55%
2,COc1ccc(OC)c(C(=O)CN2C(=O)N(c3ccc(C)cc3)S(=O)(=O)c3ccccc32)c1,5.97%
3,COC(=O)c1c(-c2cccs2)csc1NC(=O)c1ccc(C)cc1,15%
4,O=C(Cn1c(-c2cccs2)cc2ccccc21)N1CCN(c2ccc(F)cc2)CC1,-11.5%
5,Cc1cc(NC(=O)c2cc(-c3ccc(Cl)c(Cl)c3)on2)n(-c2ccccc2)n1,-24.6%
6,CCOc1ccc(CNC(=O)C2CCN(C(=O)N3CC(CC)Oc4ccc(C)cc43)CC2)cc1OC (stereo unspecified),-13.5%
7,COc1ccccc1NC(=O)Cn1c(=O)n(CC2CCC(C(=O)NCCc3ccccc3)CC2)c(=O)c2ccccc21 (stereo unspecified),10.6%
8,Cc1ccccc1N1CC(c2nc3ccccc3n2Cc2ccc(Br)cc2)CC1=O (stereo unspecified),22.6%
9,Cc1cc(Br)ccc1NC(=O)c1c(C)oc2ncnc(N3CCCCC3)c12,-2.82%
10,COc1ccc(CNC(=O)C(=O)Nc2cccc(C)c2C)cc1,-0.282%
11,COc1ccc2oc(-c3ccc(NC(=O)c4ccc(Cl)cc4Cl)cc3)nc2c1,-5.6%
12,Cc1ccc(-n2ncc3c(N4CCN(c5ccc(F)cc5)CC4)ncnc32)cc1,-3%
13,O=c1c(-c2cc(-c3ccccc3)nc3c2COc2ccccc2-3)coc2ccc(Cl)cc12,-5.3%
14,O=C(Nc1cc(Cl)ccc1Cl)c1cc(S(=O)(=O)N2CCc3ccccc3C2)ccc1F,-3.32%
15,CCc1ccc(NC(=O)C2CCCN(c3nnc(C)c4c(C)n(-c5ccccc5)nc34)C2)cc1 (stereo unspecified),-16.8%
16,Cc1cccc(NC(=O)N2CCN3CCCCC3C2)c1C (stereo unspecified),-2.51%
17,COc1cc(NC(=O)CCS(=O)(=O)c2ccc3c(c2)n(C)c(=O)c(=O)n3C)cc(OC)c1,17.1%
18,Cc1cccc(C)c1Nc1c(-c2ccsc2)nc2cccc(C)n12,-2.56%
19,COc1ccccc1N1CCN(c2csc3ccccc3c2=O)CC1,-18.1%
20,COc1cccc(NC(=O)Cn2c(-c3nonc3N)nc3ccccc32)c1,8.02%
21,COc1ccccc1CNC(=O)CCCCn1c(=O)c2ccccc2n(CC(=O)Nc2cccc(Cl)c2)c1=O,-0.956%
22,CCOc1ccc(/C=C/c2nc(C#N)c(N3CCC(C)CC3)o2)cc1,-17.2%
23,COC(=O)c1cc2oc3ccccc3c2n1Cc1ccccc1Cl,-3.25%
24,CCc1ccc(Sc2cc(C(=O)NCCCN3CCC(C)CC3)c3ccccc3n2)cc1,-14.6%

row,SMILES,inhibition
1,COC(=O)c1c(-c2ccc(Cl)cc2)noc1N1CCN(c2ccc(F)cc2)CC1,0.311%
2,Cc1ccc(C(C)C)c(OCc2nc(-c3nonc3N)no2)c1,active: 33%
3,C/C(=C\c1ccccc1)CN1CCN(c2ccccc2F)CC1,active: 66.9%
4,Cc1ccc(-c2nc(-c3cc4cccc(OCc5ccccc5F)c4oc3=O)no2)cc1,-10.7%
5,O=C(Cn1cc2c(n1)CCCC2)NCCCN1CCN(c2ccccc2F)CC1,active: 76.2%
6,Cc1ccc(NC(=O)Cn2c(=O)n(Cc3ccc(C(=O)NCc4ccc5c(c4)OCO5)cc3)c(=O)c3ccccc32)cc1,-2.14%
7,CCOc1ccc(CNC(=O)CCS(=O)(=O)c2ccc3c(c2)oc(=O)n3C)cc1,-27.4%
8,CC(C)c1cc(C(=O)NCc2ccccc2)no1,-18.1%
9,COc1ccc(NC(=O)Cn2nc(C(F)(F)F)c3c2CCCC3)cc1OC,-4.71%
10,COc1cccc(-c2nn3c(=O)cc(CN4CCN(C(=O)/C=C/c5ccccc5)CC4)nc3s2)c1,27.1%
11,Cc1cccc(N2CCN(C(=O)c3ccc4c(Cl)c5c(nc4c3)CCCC5)CC2)c1C,-12.8%
12,CCOc1ccccc1NC(=O)C1=C(C)Nc2ncnn2C1c1cccs1 (stereo unspecified),5.8%
13,COc1cc(NC(=O)c2nc3ccccc3n(C)c2=O)cc(OC)c1OC,8.89%
14,CC(C)NC(=O)CN1C(=O)c2cccnc2Sc2ccccc21,0.927%
15,Cc1ccc(CCNC(=O)CCS(=O)(=O)c2cc3c(cc2Cl)NC(=O)CO3)cc1,11.8%
16,COc1ccc(CNC(=O)C2=CC(c3cccc(OC)c3)=NS(=O)(=O)N2C)cc1,17.3%
17,O=C(OCc1cc(=O)n2nc(C3CC3)sc2n1)c1ccccc1Cl,-5.51%
18,CC(=O)c1cccc(NC(=O)c2cc(C)nc3c2c(C)nn3-c2cccc(Cl)c2C)c1,-1.51%
19,CCn1cc(C(=O)NCCc2ccc(C)cc2)c(=O)c2cc(S(=O)(=O)N3CCC(C)CC3)ccc21,4.46%
20,COC(=O)c1ccc(NC(=O)C(=O)NCC(c2cccnc2)N2CCc3ccccc32)cc1 (stereo unspecified),15.5%
21,CCCOc1ccc(C(=O)Nc2ccc3oc(-c4ccc(N(C)C)cc4)nc3c2)cc1,-4.51%
22,Cc1c(NC(=O)c2sc3ccccc3c2Cl)cccc1-c1nc2ccccc2o1,-6.99%
23,Cc1c(Cl)cccc1NC(=O)Cn1nnc(-c2nc(-c3ccccc3)no2)c1N,2.35%
24,Cc1ccccc1OCC(=O)Nc1ccc2nc(SCC(N)=O)sc2c1,-7.08%

row,SMILES,inhibition
1,Cc1ccc(C2CC(C(F)(F)F)n3ncc(C(=O)NCc4ccco4)c3N2)cc1 (stereo unspecified),active: 37.2%
2,CC1=C(C(=O)Nc2ccccc2)C(c2ccc[nH]2)n2ncnc2N1 (stereo unspecified),12.3%
3,CCCCOC(=O)c1ccc(NC(=O)c2csnn2)cc1,1.17%
4,O=C(COC(=O)c1ccccc1-c1nc2ccccc2s1)NC1CCS(=O)(=O)C1 (stereo unspecified),active: 32.3%
5,COCc1c(C(=O)N2CCN(CCOc3ccccc3)CC2)oc2ccccc12,active: 77.5%
6,CSc1oc(-c2ccccc2)nc1S(=O)(=O)c1ccc(C)cc1,active: 34.3%
7,Cc1cccc(N2CCN(C(=O)CNC(=O)c3ccccc3)CC2)c1C,active: 33.1%
8,CCOC(=O)c1cccc(NC(=O)c2ccc3nc(CCc4ccccc4)oc3c2)c1,-4.68%
9,O=C(NCCCc1nc2ccccc2n1Cc1cccc(Cl)c1)C1CCCCC1,0.674%
10,O=C(c1ccc2c(c1)N(Cc1ccc(Cl)cc1)C(=O)c1ccccc1S2=O)N1CCC(Cc2ccccc2)CC1 (stereo unspecified),-9.39%
11,Cc1csc(=O)n1CCC(=O)OCC(=O)Nc1ccc(S(N)(=O)=O)cc1,active: 53.9%
12,COc1ccccc1N1CCN(Cc2nnc(-c3ccccc3C)o2)CC1,-4.95%
13,O=S(=O)(Nc1ccc(C(F)(F)F)cc1)c1ccc2c(c1)OCCO2,18.1%
14,COc1ccc(OC)c(S(=O)(=O)NCC(c2ccco2)S(=O)(=O)c2ccccc2)c1 (stereo unspecified),2.77%
15,Cc1ccccc1OCCCCn1c(CCNC(=O)C(C)(C)C)nc2ccccc21,2.84%
16,COc1ccc(OC)c(CNC(=O)c2ccc(NC(=O)c3nsc4ccccc34)cc2)c1,-25.8%
17,O=C(CSc1ccccc1)NCc1ccc2c(c1)CCN2C(=O)c1ccccc1,4.53%
18,COc1cccc(-c2noc(CCCC(=O)NCc3ccco3)n2)c1,-4.02%
19,CN(Cc1ccccc1)C(=O)CCS(=O)(=O)c1ccc2c(c1)oc(=O)n2C,2.19%
20,COC(=O)c1ccccc1NC(=O)c1ccc(-c2nc(CSc3ccc(C)cc3)c(C)o2)cc1,11%
21,COc1ccc(OC)c(CN2CCN(CCCc3ccccc3)C(CCO)C2)c1 (stereo unspecified),active: 69.1%
22,CC(C)N(Cc1ccccc1)C(=O)Cn1ncc2c3ccccc3n(Cc3ccccc3)c2c1=O,-21.3%
23,C=CCn1c(O)c(C(CC)=NCc2cccnc2)c(=O)[nH]c1=O,active: 42%
24,COc1ccc(CCNC(=O)c2cn(C)c3ccc(S(=O)(=O)N4CCOCC4)cc3c2=O)cc1OC,8.63% and active: 39.6%
